In the RNAGym collection of RNA variant scans (doi:10.7554/elife.90254):
Read counts are not given, so values of variants with three or more changes are uncertain.

B1: LINE1-mini (parent)
chain: GGCAGAGCUCAACACAGCGUGGCAAAGUGGCUGUGGCUAGACUGCC

Variants of: B1
Assay: self-cleavage, relative activity (ratio to wild type); higher = more cleavage; in vitro, sequencing; the parent is a self-cleaving ribozyme

Row | Variant | self-cleavage
1 | G5C C13G U20C C31G | 0.01
2 | G5U A6C G7A C10U G30U C31G G44A | 0.16
3 | G5U A6G U32G C46U | 0.04
4 | G5C G21A G30U U38A | 0.01
5 | G5U A24C A25C | 0.01
6 | G5C C8A C13A G21U C42U | 0.09
7 | G5C C37U G40A U43G | 0.05
8 | G5C U9A C15U G22C | 0.06
9 | G5C G19C G21U G30C C42U | 0.04
10 | G5U C18A G40U C45A | 0.02
11 | G5U C23G G40U C42U | 0.05
12 | G5C C10A A24U G27U | 0.02
13 | G5C U20C U28C G29U A39G C45U | 0
14 | G5U C13G A16G C18U | 0.02
15 | G5U C8G G17C | 0.05
16 | G5U C8U C10U G22U A25G U32A G35C | 0.01
17 | G5C A26C G36U | 0.02
18 | G5C A25G G29C C46U | 0.04
19 | G5U A6G A24C C37A | 0.04
20 | G5U C8G C18U | 0.08
21 | G5U C8A G33A G36A G44U | 0.12

Row | Variant | self-cleavage
22 | G5C C10G A11C A12U C15A G17C C23A | 0.01
23 | G5U C13U G29U G33U | 0
24 | G5C A26C G35A C37G | 0.09
25 | G5C C8G G35A | 0.01
26 | G5U C10G G17C G22U A25C A26G G29A | 0.01
27 | G5C C15U A24C U38C A41C | 0.07
28 | G5C C23G U28C G30C | 0.03
29 | G5A U38A C45A | 0.03
30 | G5C C8G A16U C31G U32G G36U U38C | 0.09
31 | G5U C23A A24U G33A G44A | 0.04
32 | G5U A12C C46A | 0.02
33 | G5C G7U C42A | 0.3
34 | G5U C13A A14C A24G G27C | 0.01
35 | G5C C18A G33U C37G | 0.02
36 | G5U C15G A16C G17U U28C | 0
37 | G5U C8G G17U A26G | 0.09
38 | G5U A14C U43C | 0.07
39 | G5C A26U C46U | 0.03
40 | G5C A16U C45G | 0.02
41 | G5U C23A G30U G40C | 0.43
42 | G5C G21A G27C | 0.16

Row | Variant | self-cleavage
43 | G5U A14U G29C | 0.65
44 | G5U C15G A26U U32A | 0
45 | G5U A16G C42A | 0.12
46 | G5U C23A U28A | 0.05
47 | G5C C23A A26C C31U U38C U43A | 0.01
48 | G5U C8U A14G G35U C45A | 0.41
49 | G5U C8A C18U C37G | 0.11
50 | G5U C8A C10A A26U G29U U34G | 0.03
51 | G5C G19U G30A C37G C46U | 0.04
52 | G5C A11C G30A C46G | 0.04
53 | G5C C18A C37U | 0.01
54 | G5U C10U G40A C46A | 0.05
55 | G5C G30U G40A G44A | 0.04
56 | G5U A16G G29U G35C G40A | 0.1
57 | G5C A16C U38A | 0.08
58 | G5C G17A C31A U32C | 0.04
59 | G5U C8U C15G G29U | 0.07
60 | G5C A14C C18U G19U | 0.12
61 | G5C A16G C37U A39G | 0
62 | G5C A26C U38G | 0
63 | G5C A16U A26U | 0.03

Row | Variant | self-cleavage
64 | G5U C18G U28C C45U C46U | 0.05
65 | G5C G27C C46A | 0.07
66 | G5C C8U U9C G35A | 0.13
67 | G5C U9C G27U | 0.02
68 | G5C G7C C13A G36U A41C | 0.14
69 | G5C A16G A25G G33A U43G | 0
70 | G5C A6C A11C G19A G29C C42U | 0.03
71 | G5U A11G G33U | 0.02
72 | G5U A12U G17U C23A C46G | 0.01
73 | G5U C8U A24C | 0.17
74 | G5C A12C C18G U28G | 0
75 | G5U C8A G17C C31G U34C C46A | 0.38
76 | G5C C15A A16U C23G G30U U32G G36C A41U | 0.01
77 | G5C C8U C13U | 0.1
78 | G5C C18A G21U G22U | 0.07
79 | G5U A25C U28C | 0.06
80 | G5C A14G G19A U32G C37A | 0.04
81 | G5C A6C G33A | 0.11
82 | G5C C10A G27U G40C | 0.02
83 | G5U A6G U9A C18G G44U | 0.01
84 | G5U A6U G30U C37A | 0.04
